Data as given in the supplement of paper PMC5499739.
The full ranking holds about 16,000 sequences; the median of “Z-score” is about -0.37, and the highest 2% start at about 3.2. The list shows a part of the results.

Test system: RBM10 RRM1-ZnF (GST-tagged construct)
Assay: RNAcompete 7-mer binding Z-score; higher = stronger binding preference
Protocol: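 RNAcompete: 20 pmol GST-tagged RBM10 RNA-binding constructs were incubated with a designed RNA pool of about 241,000 sequences up to 41 nt (1.5 nmol) on glutathione beads for 30 min at 4 °C and washed. Bound RNAs were identified by microarray hybridisation. Each RNA 7-mer is scored by a one-sided Z-score of its enrichment, computed over probes that contain the 7-mer within longer pool sequences.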

Sequence | RNAcompete 7-mer binding Z-score
ACGUUGA | 0.0105
UGUAAAU | -0.272
GUCGAAC | -0.305
GUUAAGU | 0.0495
CGGCCCU | -0.565
CCUAUAU | -0.733
AAGUCAA | -0.123
UCCCCUA | -0.574
AGGCUGC | 0.00404
UCUCCAA | -0.72
CGGACCU | -0.493
CUAAAUA | -0.594
GUCCGUG | -0.253
AGUAGUG | 1.09
CCUGGUG | -0.0512
GAGCCAG | -0.106
GCCAGGG | 1.93
CUCGGCU | -0.467
UGGAAAU | 1.1
CAUUGCG | -0.464
CCGAUAU | -0.642
UGUUGCG | -0.0155
AUUCUUC | -0.811

Sequence | RNAcompete 7-mer binding Z-score
AAAGACU | -0.298
GACUGAA | -0.23
GAUAGGC | 0.852
UUCUGGG | 0.283
CUAGCUA | -0.727
CCUCCAA | -0.818
UGGCGUG | 1.21
UGUAACC | -0.47
CGCCAUU | -0.805
CCUACCA | -0.711
CUUACGA | -0.811
CGAAAUA | -0.376
ACUGCCU | -0.854
GCUACAG | -0.223
GGUAGUU | 0.771
CGAACUC | -0.789
UACGUAG | 0.173
CCACACG | -0.311
CACCCGC | -0.392
ACCCCUA | -0.555
ACAUCUG | -0.626
UCUAACG | -0.623
UUACGGG | 1.26

Sequence | RNAcompete 7-mer binding Z-score
UUCUCUG | -0.756
CCAACGG | 0.173
ACAUCUA | -0.642
ACAAAAU | -0.561
UCACUAG | -0.279
AACUGCC | -0.704
UCUGGUG | 0.342
UGCCGGC | -0.454
CAAGCGC | -0.587
ACUAGCA | -0.415
GCUAUAG | 0.163
CGCGGGC | 0.719
UAGCGUC | -0.535
AAUAUUG | -0.275
CUUGCCU | -0.824
ACCUCUU | -0.899
UUCCAAG | -0.642
AGAUUAG | 0.755
CCGAACU | -0.818
UUGAACU | -0.539
AAGACAG | 0.339
AACUGGU | 0.118
GGCGGCG | 1.13

Sequence | RNAcompete 7-mer binding Z-score
CCCCUGA | -0.357
GGAUUCC | -0.275
CGUUUGG | 0.296
CUUGUAC | -0.779
GAUAAUG | 0.703
AACCGGG | 0.914
CUUGUGC | -0.717
UUAGGUG | 1.46
AGUCCUC | -0.604
CACGUAU | -0.448
UGGUCAC | 0.173
UGAGGCA | 0.904
UUUGGAG | 1.06
CAGUGCA | -0.23
ACGAGCA | 0.000789
GUCCAUC | -0.561
GGCGUCG | 0.68
UUCGAUC | -0.769
CACCCCA | -0.256
AAUGAUA | 0.00404
GCGACAG | 0.54
UACAGGA | 1.31
AGAGUAU | 0.115

Sequence | RNAcompete 7-mer binding Z-score
UUGCAAC | -0.626
GGUGCAU | 1.34
ACGCCAU | -0.665
CGCCACA | -0.565
CCCACUU | -0.685
UAUGGAU | 1.21
UGUCAAG | -0.0544
AUACGAU | -0.324
ACGAUAC | -0.487
GGGCUGC | 1.5
UGGGGUU | 3.29
CCCAGGG | 0.426
CAACAGU | -0.386
CGGCCGU | -0.292
AGUUGUC | -0.642
GCUUCGU | -0.678
CACUACU | -0.457
CGAUGGG | 2.22
UGCGGCA | 0.306
CAGGUAC | 0.68
GGUUGCG | 2.19
UACUCAG | -0.428
GUCCAUA | -0.623

Sequence | RNAcompete 7-mer binding Z-score
AGCUGAA | 0.186
CCAUUUA | -0.99
ACUCCUU | -0.896
ACAGUGG | 1.24
CGAAUCG | -0.451
CGCGCCG | -0.402
UCCUUUC | -0.707
AAAUCCC | -0.86
AAGAACG | 0.144
CCAAUGA | -0.711
CAAUCCG | -0.763
CAAGCUG | -0.519
AUCUGGA | -0.0252
AAGAAGG | 3.54
AGGGACU | 1.23
UGGUAGA | 2.34
GUGUGUU | 0.296
UAAAAGU | 0.0268
ACUUCAC | -0.776
GGUUCGA | 0.482
GUUUACA | -0.363
CCUUGAC | -0.909
GAGCGAU | 0.534

Sequence | RNAcompete 7-mer binding Z-score
UUAGUAG | 0.264
CAAUAUG | -0.379
CGCGGUU | 0.348
AUCAUAG | -0.321
AAGUUUG | -0.194
CGUAAGC | -0.383
CACCCAC | -0.36
GGUCUAG | 0.235
GGCUCUU | -0.526
UUAGUUC | -0.675
UUAGAUU | -0.503
GCUCUUU | -0.831
CUUGGCC | -0.571
CCACUAC | -0.623
UUCUCUU | -0.623
CUGCGAG | 0.128
AUGCACU | -0.542
CUAGACA | -0.613
AAAGUCC | -0.561
AGUGGCG | 1.69
AGUUUUA | -0.639
AUCUACU | -0.698
CGUAAAG | -0.116

Sequence | RNAcompete 7-mer binding Z-score
UAGUGUC | -0.396
CGACUCA | -0.88
CCAGCUA | -0.717
UUCUACG | -0.841
ACUGACA | -0.318
AGCUCCC | -0.503
CUUCCUC | -0.694
GCUAUGC | -0.269
AGGCCGC | -0.805
AAUUUCG | -0.607
UUUUACG | -0.685
GUGACAG | 1.11
CCGCCAU | -0.617
CAACCUA | -0.649
AGGGAUG | 4.59
ACCUGUA | -0.75
GGGCGCU | 0.667
UUGGUCA | 0.0788
UAAACCG | -0.62
UUAUAGG | 0.751
UACAGAA | -0.353
CACCUGU | -0.539
UAAGUAC | -0.496
